Test results from PubChem BioAssay AID504832 (National Center for Advancing Translational Sciences (NCATS), 2011).
Values joined by “and” are separate entries in the source; they are usually repeats but may differ in a detail not shown here. Identical values can stand only once. Out of some 310,000 compounds screened, about 18,000 (5.8%) were called active. The inconclusive results got no clear call from the source; some entries with a clear call stand among them for comparison. Calls come from the whole dose curve; as a rule, active = well fitted inhibition curve with a large enough effect; inconclusive = small, poorly fitted or top-dose-only effect, or another doubt; inactive = no such curve, though single readings can be large or run the other way. Where the call is inconclusive, the potency comes from a doubtful curve fit.

Test: Primary qHTS for delayed death inhibitors of the malarial parasite plastid, 48 hour incubation
Details: P. falciparum luciferase growth in erythrocytes; series mostly up to 28.7 µM; activity change, negative = inhibition: at the top concentration
Procedure, shortened: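 Erythrocytes infected with P. falciparum carrying an integrated firefly luciferase reporter (2% hematocrit, 0.1% parasitemia final) were exposed to compounds in RPMI 1640 with 0.5% Albumax at 37 C, 5% CO2. Growth inhibition was scored as reduced luminescence.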
% is set by controls: 0 for no effect and ±100 for the full control effect; potency is the fitted concentration of half-maximal effect; tags give direction and shape of the fitted curve.

| Structure (SMILES) | Potency | activity change, negative = inhibition |
| --- | --- | --- |
| Cc1[nH]c2ccccc2c1C(=O)CSc1nc2cc(S(=O)(=O)N3CCCCC3)ccc2o1 | inconclusive: 2.33 µM [inhibitor, full curve] |  |
| Nc1ncc(CN2CCCC(C(=O)Nc3ccc(-c4ccco4)cc3)C2)cn1 (stereo not given) | inconclusive: 14.7 µM [inhibitor, single point] |  |
| Cc1cc(NC(=O)CSc2nc3ccsc3c(=O)n2Cc2ccccn2)n[nH]1 |  | inactive: 7.48% |
| O=Cc1ccc(OC(=O)c2cccnc2)cc1 | inconclusive: 10.4 µM [inhibitor, single point] |  |
| CCCCn1c(=O)[nH]c(=O)c2c1nc(CN1C(=O)c3ccccc3S1(=O)=O)n2CCC | inconclusive: 13.1 µM [inhibitor, single point] |  |
| CN(C)c1ccc(NC(=O)Cn2ncn3c(cc4ccccc43)c2=O)cc1 | inconclusive: 0.185 µM [inhibitor, full curve, poor fit] |  |
| CCCN(CC(=O)Nc1ccccc1C)C(=O)c1ccc2[nH]c3c(c2c1)CC(C)CC3 (stereo not given) | active: 10.4 µM |  |
| CCOc1ccccc1N(C)C(=O)c1nn(-c2ccc(OC)cc2OC)c(=O)c2ccccc12 | inconclusive: 18.5 µM [inhibitor, single point] |  |
| O=S(=O)(N/N=C/c1ccc2c(c1)OCO2)c1ccc(Br)cc1 | inconclusive: 13.1 µM [inhibitor, partial curve] |  |
| O=C(C1CC1)N1CCc2cc(Br)cc(S(=O)(=O)NCCN3CCOCC3)c21 |  | inactive: 7.92% |
| CCc1ccc(C(=O)OCC(=O)Nc2cccc(S(=O)(=O)NC3=NCCCCC3)c2)cc1 | active: 10.4 µM |  |
| Cc1ccc(OCc2nnc(SCC(=O)Nc3cccc4ccccc34)n2-c2ccccc2)cc1 | inconclusive: 18.5 µM [inhibitor, single point] |  |
| CN(CC(=O)NCCc1ccccc1)S(=O)(=O)c1ccc(Br)s1 |  | inactive: -8.39% |
| Cc1ccccc1Cn1nnc(C(=O)Nc2cccc(C)c2C)c1N | inconclusive: 14.7 µM [inhibitor, partial curve, poor fit] |  |
| Cc1ccc(C(=O)Nc2ccccc2C(=O)NCC2CCCO2)cc1 (stereo not given) | inconclusive: 13.1 µM [inhibitor, partial curve] |  |
| CC(=O)NC(NC(=S)Nc1ccc(N=Nc2ccccc2C)cc1C)C(Cl)(Cl)Cl (stereo not given) | inconclusive: 13.1 µM [inhibitor, single point] |  |
| NC1(C#Cc2ccc3oc(=O)c(-n4cc(-c5ccsc5)nn4)cc3c2)CCCCC1 |  | inactive: 17.1% |
| COc1ccc(/C=C/C(O)=C2/C(=O)NC3(C)CC2c2ccccc2O3)c(OC)c1OC (stereo not given) | inconclusive: 8.28 µM [inhibitor, partial curve] |  |
| O=C(COc1ccc(S(=O)(=O)N2CCOCC2)cc1Cl)N1CCCC1 | inconclusive: 3.7 µM [inhibitor, partial curve, poor fit] |  |
| CCCCCn1c(CNC(=O)CC)nc2ccccc21 |  | inactive: 3.19% |
| Cc1ccccc1CSc1ccc2nnc(-c3ccccn3)n2n1 | inconclusive: 18.5 µM [inhibitor, single point] |  |
| O=C(N/C(=C\c1ccc(Cl)cc1)C(=O)N1CCOCC1)c1ccc([N+](=O)[O-])cc1 | inconclusive: 14.7 µM [inhibitor, partial curve, poor fit] |  |
| COc1ccc(N=C2NC(=O)C(CC(=O)NCCc3ccc(OC)c(OC)c3)S2)cc1 (stereo not given) | inconclusive: 18.5 µM [inhibitor, single point] |  |
| Cc1ccc(N(CC2=NCCN2)c2cccc(O)c2)cc1 | inactive and inconclusive: 16.9 µM [inhibitor, single point] |  |

| Structure (SMILES) | Potency | activity change, negative = inhibition |
| --- | --- | --- |
| CCOC(=O)c1nn(-c2ccc3c(c2)OCCO3)cc1O |  | inactive: 225% |
| O=C(CN1C2CCCC1CC(NC(=O)c1ccco1)C2)Nc1ccccc1C(F)(F)F (stereo not given) | inconclusive: 14.7 µM [inhibitor, partial curve, poor fit] |  |
| CCCSc1nnc(NC(=O)Nc2ccc(F)cc2)s1 | inconclusive: 18.5 µM [inhibitor, single point] |  |
| COc1ccc(-c2nc(SC)n(C(=O)c3ccco3)n2)cc1 |  | inactive: 70.1% |
| COc1cc(NC(=S)N2CCN(S(=O)(=O)c3ccccc3)CC2)cc(OC)c1 | inconclusive: 11.7 µM [inhibitor, single point] |  |
| CCOc1ccc(C(=O)NCc2ccco2)cc1Cl | inconclusive: 4.65 µM [inhibitor, partial curve, poor fit] |  |
| Cc1ccsc1C(=O)NNC(=O)CCN1CCN(c2ccccc2)CC1 |  | inactive: 26.4% |
| O=C(CSc1cccc[n+]1[O-])Nc1ccc(N2CCOCC2)cc1 |  | inactive: 13.1% |
| CCCc1cc(=O)oc2cc(C)cc(OC(C)C(=O)NCc3ccncc3)c12 (stereo not given) | active: 3.29 µM |  |
| O=C(CSc1cn[nH]n1)Nc1cccc(C(F)(F)F)c1 | inconclusive: 14.7 µM [inhibitor, partial curve, poor fit] |  |
| CC(=O)n1cc(N(C(=O)CCl)c2ccc(C)cc2)c2ccccc21 | inconclusive: 2.62 µM [inhibitor, single point] |  |
| CCc1nnc(NC(=O)Cc2ccc(S(=O)(=O)N3CCCCC3)cc2)s1 | active: 11.7 µM |  |
| O=C(Nc1nc2cc3c(cc2s1)OCCO3)C1CCCCC1 |  | inactive: -34.6% |
| COc1ccc(CNc2ncc(-c3ccc(F)cc3)n2C)c2ccccc12 | inconclusive: 11.7 µM [inhibitor, single point] |  |
| Cc1cccc(OCCCC(=O)NNC(=O)c2ccccn2)c1 | active: 2.33 µM |  |
| C=CCN(C(=O)CSC1=NC(=O)CN1C(C)=O)c1nc(C)c(-c2ccccc2)s1 |  | inactive: 0% |
| O=C(c1noc2c1CCc1ccccc1-2)N1CCCc2ccccc21 | active: 3.29 µM |  |
| COc1ccc(O)c(-c2cc(-c3ccccc3Cl)[nH]n2)c1 | inconclusive: 6.57 µM [inhibitor, partial curve, poor fit] |  |
| N/C(=N\OC(=O)N1c2ccccc2Sc2ccccc21)c1ccc(Br)cc1 | active: 8.28 µM |  |
| CCN(CC)c1ccc2c(c1)CCCN2 | active: 10.4 µM |  |
| COc1cccc(/C=C/C(=O)Oc2ccc(C(=O)c3ccc(F)cc3)cc2)c1 |  | inactive: 12% |
| CC1(C)CC(=O)c2c(n(S(=O)(=O)c3ccccc3)c3ccc(NS(=O)(=O)c4ccccc4)cc23)C1 | inconclusive: 8.28 µM [inhibitor, partial curve] |  |
| CC1CCCC(C)N1C(=O)COC(=O)CCC1CCCC1 (stereo not given) | inconclusive: 13.1 µM [inhibitor, single point] |  |
| Cc1ccc(C)c(NS(=O)(=O)c2cc(C(=O)Nc3cccc(N(C)S(C)(=O)=O)c3)ccc2C)c1 | inconclusive: 14.7 µM [inhibitor, single point] |  |

| Structure (SMILES) | Potency | activity change, negative = inhibition |
| --- | --- | --- |
| O=C(CSc1nnc(-c2ccco2)c(-c2ccco2)n1)c1ccccc1 |  | inactive: -4.36% |
| CN(Cc1ccccc1)C(=O)COC(=O)c1ccc(=O)n(Cc2ccccc2)n1 | inconclusive: 11.7 µM [inhibitor, single point] |  |
| CSc1nc(N2CCN(Cc3ccc4c(c3)OCO4)CC2)c2ccccc2n1 | inconclusive: 10.4 µM [inhibitor, single point] |  |
| CN(C)S(=O)(=O)c1ccc(N2CCCC2)c(C(=O)NCC2CCCO2)c1 (stereo not given) | inconclusive: 9.28 µM [inhibitor, partial curve, poor fit] |  |
| COC(=O)c1ccc(Nc2nc3ccc(C)cc3n3cnnc23)cc1 |  | inactive: 99.9% |
| Cc1c(C(=O)OCCOC(C)C)[nH]c2c1C(=O)CC(c1ccco1)C2 (stereo not given) | inconclusive: 1.65 µM [inhibitor, full curve] |  |
| Cc1sc2ncnc(N3CCC(C(=O)N(C)CC(=O)Nc4ccccc4Cl)CC3)c2c1C | inconclusive: 3.7 µM [inhibitor, partial curve, poor fit] |  |
| Cc1nc(NC(=O)/C=C/c2ccccc2)sc1C(=O)Nc1ccccc1 |  | inactive: 48.4% |
| CCCC1CCc2[nH]nc(C(=O)NN)c2C1 (stereo not given) |  | inactive: 1.59% |
| CN1C(=O)C(CC(=O)NC2CCCCC2)N(C)C1=O (stereo not given) | inconclusive: 0.928 µM [inhibitor, partial curve, poor fit] |  |
| O=C(Cn1cnc2c(nnn2Cc2ccccc2)c1=O)N1CCN(c2ccccc2)CC1 |  | inactive: -25.7% |
| N#Cc1cccc(NC(=O)Nc2cccs2)c1 | inconclusive: 0.738 µM [inhibitor, full curve, poor fit] |  |
| CC(C)(C)c1cc[n+](C2=C([O-])c3ccccc3C(=O)/C2=N\S(=O)(=O)c2cccs2)cc1 | active: 1.31 µM |  |
| O=C(Cc1cccc(NC(=O)C2CCCN(C(=O)CCc3ccccc3)C2)c1)Nc1cccc(C(=O)N2CCCC2)c1 (stereo not given) | inconclusive: 8.28 µM [inhibitor, partial curve] |  |
| CC1CCN(S(=O)(=O)c2ccc3c(c2)N(CC(=O)NCCCOC(C)C)C(=O)CS3)CC1 | inconclusive: 9.28 µM [inhibitor, partial curve, poor fit] |  |
| Cc1c(N=Nc2c(O)[nH]c(=O)[nH]c2=O)c(=O)n(-c2ccccc2)n1C |  | inactive: 2.9% |
| Cc1ccc(NC(=O)CSCc2cc(=O)n3cc(C)sc3n2)cc1 |  | inactive: 18.2% |
| Cc1ccc(C)c(OCCC(=O)Nc2ccc(S(=O)(=O)N3CCCC3)cc2)c1 | inconclusive: 18.5 µM [inhibitor, single point] |  |
| Nc1c(C(=O)OCC2CCCO2)c2nc3ccccc3nc2n1C1CCCC1 (stereo not given) | active: 10.4 µM |  |
| CC(C)[C@H](NC(=O)[C@@H]1Cc2ccccc2CN1C(=O)OC(C)(C)C)C(=O)NC1CCCC1 | inconclusive: 9.28 µM [inhibitor, partial curve] |  |
| O=C(Nc1ccc2snnc2c1)Nc1cccc2ccccc12 | inconclusive: 18.5 µM [inhibitor, single point] |  |
| CCOC(=O)[C@H]1[C@H]2COc3ccc(C)cc3[C@@H]2N2C(=O)c3ccc(F)cc3NC(=O)[C@@]12C | inconclusive: 16.5 µM [inhibitor, single point] |  |
